In publication PMC7530023 (Molecular neurobiology, 2020):

Molecular target: the molecule itself
Assay: thioflavin S fluorescence aggregation assay

B1: K18 fragment of tau (the R1–R4 core domain) (domain or fragment)
chain: not shown
binding result: binds
